For assay [1], the target named is T1, Ole1-Myc-Cub-LexA-VP16 (S. cerevisiae, UniProt P21147 1-510).
T1 construct: Ole1, Δ9 acyl-CoA (stearoyl-CoA) desaturase of S. cerevisiae; the endogenous chromosomal OLE1 gene, with the tag at its carboxyl end; The tag was put behind the chromosomal gene, so the whole protein is likely; also called Δ9 acyl-CoA desaturase Ole1; Ole1-Cub-LexA-VP16; not shown: Myc, C-terminal, kept; Cub-LexA-VP16, C-terminal, kept
T1 sequence (looked up): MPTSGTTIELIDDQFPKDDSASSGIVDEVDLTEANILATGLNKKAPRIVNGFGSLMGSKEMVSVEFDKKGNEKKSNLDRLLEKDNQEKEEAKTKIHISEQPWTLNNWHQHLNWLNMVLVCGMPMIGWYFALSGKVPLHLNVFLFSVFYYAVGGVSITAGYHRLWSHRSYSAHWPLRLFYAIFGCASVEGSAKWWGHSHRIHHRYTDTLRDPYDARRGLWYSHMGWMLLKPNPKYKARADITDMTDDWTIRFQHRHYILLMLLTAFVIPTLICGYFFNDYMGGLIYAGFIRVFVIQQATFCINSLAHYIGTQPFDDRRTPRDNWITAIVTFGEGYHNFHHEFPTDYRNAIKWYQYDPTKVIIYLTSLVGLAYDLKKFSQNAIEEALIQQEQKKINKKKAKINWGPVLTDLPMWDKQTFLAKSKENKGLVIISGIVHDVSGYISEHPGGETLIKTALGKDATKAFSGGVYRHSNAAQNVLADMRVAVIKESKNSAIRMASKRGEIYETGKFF
As to the kind of experiment: two-hybrid; integrated membrane yeast two-hybrid (split ubiquitin): Ole1-Myc-Cub-LexA-VP16 from the endogenous locus of strain YBG1 as bait, NubG fusions from plasmids as prey; growth on SD-W-H-A with 6 mM 3-aminotriazole and β-galactosidase activity of cell extracts.

In assay [2] the target is T2, Slc1-Cub-LexA-VP16 (S. cerevisiae, UniProt P33333 1-303).
T2 construct: Slc1, lysophosphatidic acid acyltransferase of S. cerevisiae; The end of the tag is read from the order of the printed label; also called Slc1 bait (strain YBG2); pTMBV4-SLC1; not shown: Cub-LexA-VP16, C-terminal, kept
T2 sequence (looked up): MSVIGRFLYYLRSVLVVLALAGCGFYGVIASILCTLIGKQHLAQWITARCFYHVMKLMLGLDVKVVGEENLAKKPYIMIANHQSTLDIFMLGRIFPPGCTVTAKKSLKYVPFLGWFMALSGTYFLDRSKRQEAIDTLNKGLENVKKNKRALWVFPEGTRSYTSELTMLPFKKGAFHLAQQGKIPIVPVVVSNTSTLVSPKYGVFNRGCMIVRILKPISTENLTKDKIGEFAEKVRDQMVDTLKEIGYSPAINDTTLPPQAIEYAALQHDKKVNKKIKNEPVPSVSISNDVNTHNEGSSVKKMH
Description: two-hybrid; membrane yeast two-hybrid (split ubiquitin): plasmid-borne Slc1-Cub-LexA-VP16 as bait and NubG fusions as prey in NMY51; growth on SD-W-L-H-A with 6 mM 3-aminotriazole and β-galactosidase activity of cell extracts.

No constants are given. Whether binding was seen depends on the method and setting. Some binding calls cover weakened binding; strength is not graded here. For some of these results: Sequences can lack the tags named with a protein.

B1: NubG-Dga1_(1–240) (domain or fragment, UniProt Q08650 1-240)
chain: MSGTFNDIRRRKKEEGSPTAGITERHENKSLSSIDKREQTLKPQLESCCPLATPFERRLQTLAVAWHTSSFVLFSIFTLFAISTPALWVLAIPYMIYFFFDRSPATGEVVNRYSLRFRSLPIWKWYCDYFPISLIKTVNLKPTFTLSKNKRVNEKNYKIRLWPTKYSINLKSNSTIDYRNQECTGPTYLFGYHPHGIGALGAFGAFATEGCNYSKIFPGIPISLMTLVTQFHIPLYRDYL
On to B1, for which the binding result in assay [1] is on record as “no binding”.

B2: NubG-Dga1_(38–418) (domain or fragment, UniProt Q08650 38-418)
chain: EQTLKPQLESCCPLATPFERRLQTLAVAWHTSSFVLFSIFTLFAISTPALWVLAIPYMIYFFFDRSPATGEVVNRYSLRFRSLPIWKWYCDYFPISLIKTVNLKPTFTLSKNKRVNEKNYKIRLWPTKYSINLKSNSTIDYRNQECTGPTYLFGYHPHGIGALGAFGAFATEGCNYSKIFPGIPISLMTLVTQFHIPLYRDYLLALGISSVSRKNALRTLSKNQSICIVVGGARESLLSSTNGTQLILNKRKGFIKLAIQTGNINLVPVFAFGEVDCYNVLSTKKDSVLGKMQLWFKENFGFTIPIFYARGLFNYDFGLLPFRAPINVVVGRPIYVEKKITNPPDDVVNHFHDLYIAELKRLYYENREKYGVPDAELKIVG
Take B2: the binding result in assay [2] is reported as “binds”.

B3: NubG-Dga1_(30–418) (domain or fragment, UniProt Q08650 30-418)
chain: SLSSIDKREQTLKPQLESCCPLATPFERRLQTLAVAWHTSSFVLFSIFTLFAISTPALWVLAIPYMIYFFFDRSPATGEVVNRYSLRFRSLPIWKWYCDYFPISLIKTVNLKPTFTLSKNKRVNEKNYKIRLWPTKYSINLKSNSTIDYRNQECTGPTYLFGYHPHGIGALGAFGAFATEGCNYSKIFPGIPISLMTLVTQFHIPLYRDYLLALGISSVSRKNALRTLSKNQSICIVVGGARESLLSSTNGTQLILNKRKGFIKLAIQTGNINLVPVFAFGEVDCYNVLSTKKDSVLGKMQLWFKENFGFTIPIFYARGLFNYDFGLLPFRAPINVVVGRPIYVEKKITNPPDDVVNHFHDLYIAELKRLYYENREKYGVPDAELKIVG
Consider B3, for which the binding result in assay [1] is recorded as “binds”.

B4: NubG-Dga1_(1–288) (domain or fragment, UniProt Q08650 1-288)
chain: MSGTFNDIRRRKKEEGSPTAGITERHENKSLSSIDKREQTLKPQLESCCPLATPFERRLQTLAVAWHTSSFVLFSIFTLFAISTPALWVLAIPYMIYFFFDRSPATGEVVNRYSLRFRSLPIWKWYCDYFPISLIKTVNLKPTFTLSKNKRVNEKNYKIRLWPTKYSINLKSNSTIDYRNQECTGPTYLFGYHPHGIGALGAFGAFATEGCNYSKIFPGIPISLMTLVTQFHIPLYRDYLLALGISSVSRKNALRTLSKNQSICIVVGGARESLLSSTNGTQLILNKR
In the case of B4, in assay [1], the binding result is recorded as “no binding”.

B5: NubG-Dga1REK (Dga1 R404A, E405A, K406A) (enzyme, UniProt Q08650 1-418)
chain: MSGTFNDIRRRKKEEGSPTAGITERHENKSLSSIDKREQTLKPQLESCCPLATPFERRLQTLAVAWHTSSFVLFSIFTLFAISTPALWVLAIPYMIYFFFDRSPATGEVVNRYSLRFRSLPIWKWYCDYFPISLIKTVNLKPTFTLSKNKRVNEKNYKIRLWPTKYSINLKSNSTIDYRNQECTGPTYLFGYHPHGIGALGAFGAFATEGCNYSKIFPGIPISLMTLVTQFHIPLYRDYLLALGISSVSRKNALRTLSKNQSICIVVGGARESLLSSTNGTQLILNKRKGFIKLAIQTGNINLVPVFAFGEVDCYNVLSTKKDSVLGKMQLWFKENFGFTIPIFYARGLFNYDFGLLPFRAPINVVVGRPIYVEKKITNPPDDVVNHFHDLYIAELKRLYYENAAAYGVPDAELKIVG
Consider B5, for which, in assay [1], the binding entry was “binds”.

B6: NubG-Dga1 S17D (enzyme, UniProt Q08650 1-418)
chain: MSGTFNDIRRRKKEEGDPTAGITERHENKSLSSIDKREQTLKPQLESCCPLATPFERRLQTLAVAWHTSSFVLFSIFTLFAISTPALWVLAIPYMIYFFFDRSPATGEVVNRYSLRFRSLPIWKWYCDYFPISLIKTVNLKPTFTLSKNKRVNEKNYKIRLWPTKYSINLKSNSTIDYRNQECTGPTYLFGYHPHGIGALGAFGAFATEGCNYSKIFPGIPISLMTLVTQFHIPLYRDYLLALGISSVSRKNALRTLSKNQSICIVVGGARESLLSSTNGTQLILNKRKGFIKLAIQTGNINLVPVFAFGEVDCYNVLSTKKDSVLGKMQLWFKENFGFTIPIFYARGLFNYDFGLLPFRAPINVVVGRPIYVEKKITNPPDDVVNHFHDLYIAELKRLYYENREKYGVPDAELKIVG
B6: the binding entry in assay [1] is “binds”.

B7: NubG-Dga1 S17A (enzyme, UniProt Q08650 1-418)
chain: MSGTFNDIRRRKKEEGAPTAGITERHENKSLSSIDKREQTLKPQLESCCPLATPFERRLQTLAVAWHTSSFVLFSIFTLFAISTPALWVLAIPYMIYFFFDRSPATGEVVNRYSLRFRSLPIWKWYCDYFPISLIKTVNLKPTFTLSKNKRVNEKNYKIRLWPTKYSINLKSNSTIDYRNQECTGPTYLFGYHPHGIGALGAFGAFATEGCNYSKIFPGIPISLMTLVTQFHIPLYRDYLLALGISSVSRKNALRTLSKNQSICIVVGGARESLLSSTNGTQLILNKRKGFIKLAIQTGNINLVPVFAFGEVDCYNVLSTKKDSVLGKMQLWFKENFGFTIPIFYARGLFNYDFGLLPFRAPINVVVGRPIYVEKKITNPPDDVVNHFHDLYIAELKRLYYENREKYGVPDAELKIVG
As to B7, the binding result in assay [1] is on record as “binds”.

B8: NubG-Gpt2 (enzyme, S. cerevisiae, UniProt P36148 1-743, looked up)
chain: MSAPAADHNAAKPIPHVPQASRRYKNSYNGFVYNIHTWLYDVSVFLFNILFTIFFREIKVRGAYNVPEVGVPTILVCAPHANQFIDPALVMSQTRLLKTSAGKSRSRMPCFVTAESSFKKRFISFFGHAMGGIPVPRIQDNLKPVDENLEIYAPDLKNHPEIIKGRSKNPQTTPVNFTKRFSAKSLLGLPDYLSNAQIKEIPDDETIILSSPFRTSKSKVVELLTNGTNFKYAEKIDNTETFQSVFDHLHTKGCVGIFPEGGSHDRPSLLPIKAGVAIMALGAVAADPTMKVAVVPCGLHYFHRNKFRSRAVLEYGEPIVVDGKYGEMYKDSPRETVSKLLKKITNSLFSVTENAPDYDTLMVIQAARRLYQPVKVRLPLPAIVEINRRLLFGYSKFKDDPRIIHLKKLVYDYNRKLDSVGLKDHQVMQLKTTKLEALRCFVTLIVRLIKFSVFAILSLPGSILFTPIFIICRVYSEKKAKEGLKKSLVKIKGTDLLATWKLIVALILAPILYVTYSILLIILARKQHYCRIWVPSNNAFIQFVYFYALLVFTTYSSLKTGEIGVDLFKSLRPLFVSIVYPGKKIEEIQTTRKNLSLELTAVCNDLGPLVFPDYDKLATEIFSKRDGYDVSSDAESSISRMSVQSRSRSSSIHSIGSLASNALSRVNSRGSLTDIPIFSDAKQGQWKSEGETSEDEDEFDEKNPAIVQTARSSDLNKENSRNTNISSKIASLVRQKREHEKKE
notes: Gpt2, glycerophosphate acyltransferase of S. cerevisiae; also called pNubG-GPT2; pADSL-NubG-GPT2; source: yeast two-hybrid fusion (split ubiquitin prey), from plasmid pADSL-NubG-GPT2 in S. cerevisiae; not shown: NubG, N-terminal, kept
On to B8, for which the binding entry in assay [1] is recorded as “binds”.

B9: NubG-Dga1_(1–398) (domain or fragment, UniProt Q08650 1-398)
chain: MSGTFNDIRRRKKEEGSPTAGITERHENKSLSSIDKREQTLKPQLESCCPLATPFERRLQTLAVAWHTSSFVLFSIFTLFAISTPALWVLAIPYMIYFFFDRSPATGEVVNRYSLRFRSLPIWKWYCDYFPISLIKTVNLKPTFTLSKNKRVNEKNYKIRLWPTKYSINLKSNSTIDYRNQECTGPTYLFGYHPHGIGALGAFGAFATEGCNYSKIFPGIPISLMTLVTQFHIPLYRDYLLALGISSVSRKNALRTLSKNQSICIVVGGARESLLSSTNGTQLILNKRKGFIKLAIQTGNINLVPVFAFGEVDCYNVLSTKKDSVLGKMQLWFKENFGFTIPIFYARGLFNYDFGLLPFRAPINVVVGRPIYVEKKITNPPDDVVNHFHDLYIAELKR
On to B9, for which the binding entry in assay [1] is given as “no binding”.

B10: NubG-Dga1_(1–318) (domain or fragment, UniProt Q08650 1-318)
chain: MSGTFNDIRRRKKEEGSPTAGITERHENKSLSSIDKREQTLKPQLESCCPLATPFERRLQTLAVAWHTSSFVLFSIFTLFAISTPALWVLAIPYMIYFFFDRSPATGEVVNRYSLRFRSLPIWKWYCDYFPISLIKTVNLKPTFTLSKNKRVNEKNYKIRLWPTKYSINLKSNSTIDYRNQECTGPTYLFGYHPHGIGALGAFGAFATEGCNYSKIFPGIPISLMTLVTQFHIPLYRDYLLALGISSVSRKNALRTLSKNQSICIVVGGARESLLSSTNGTQLILNKRKGFIKLAIQTGNINLVPVFAFGEVDCYNVL
As to B10, in assay [1], the binding result is reported as “no binding”.
